Reference: the RNAGym collection of RNA variant scans (doi:10.1093/nar/gkz1192)
Read counts are not given, so values of variants with three or more changes are uncertain.

B1: CPEB3 Ribozyme (parent)
chain: UAACAGGGGGCCACAGCAGAAGCGUUCACGUCGCAGCCCCUGUCAGAUUCUGGUGAAUCUGCGAAUUCUGCUGUAUAUCUC

Variants of: B1
Assay: self-cleavage, relative activity (ratio to wild type); higher = more cleavage; in vitro, sequencing
Summary of the method: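 Barcoded CPEB3 ribozyme mutants, produced by rounds of error-prone PCR, self-cleaved while being transcribed with T7 RNA polymerase for 5 hours at 37°C and during a subsequent 15 min DNase I step before EDTA was added. Sequencing of template-switched cDNA on Illumina gave cleaved and total reads, and DNA sequencing assigned barcodes to variants. Each variant's relative activity is its cleaved/total read fraction divided by the unmutated ribozyme's fraction, averaged across three batches. A variant needed a minimum of 5 reads.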
Variant U25C A45G A77U has a self-cleavage of 0.07.
Work on U25C U26C G30A A45U A56G A75G yielded a self-cleavage of 0.13.
Work on U25C U26A C44A yielded a self-cleavage of 0.15.
U25C A28G C62G showed a self-cleavage of 0.46.
In the case of G24U U41G A77G, the self-cleavage is reported as 0.11.
Work on U25C C27U A56U yielded a self-cleavage of 0.15.
For U25A G52A U60C A65U U67A, the self-cleavage was 0.06.
With U25A U66C A75G U80C the self-cleavage was 0.07.
For U25C U41A U60C C81A, the self-cleavage was 0.07.
With U25C A28G U43A U60C A77G U80A the self-cleavage was 0.21.
With U25C A28G U51C U72A the self-cleavage was 0.13.
Variant U25A U41C G42A A64U A75U has a self-cleavage of 0.11.
U25C U72G U78C gave a self-cleavage of 0.19.
In the case of U25C U51C U74A U78A, the self-cleavage is reported as 0.05.
U25C U31C U41C C68A showed a self-cleavage of 0.13.
Variant U25C A47G U51A U72A has a self-cleavage of 0.15.
With U25A G52A U76C the self-cleavage was 0.51.
In the case of U25C A47U U48C U69C, the self-cleavage is reported as 0.17.
Work on U25C A65G U72A yielded a self-cleavage of 0.06.
With U25C U41A U49C the self-cleavage was 0.42.
In the case of U25C U26C A47U, the self-cleavage is reported as 0.16.
In the case of U25C G61A A65G, the self-cleavage is reported as 0.38.
With U25C U26C A28C G36U the self-cleavage was 0.07.
In the case of U25C G42A A47G U51A A56G U60A, the self-cleavage is reported as 0.23.
Variant U25C C40A A45U A56U A77G has a self-cleavage of 0.17.
Work on U25C U31A C38A U41C U51C U72A yielded a self-cleavage of 0.11.
Work on U25C G30A U43C A45U A75G yielded a self-cleavage of 0.12.
With U25C U69A U74A the self-cleavage was 0.07.
For U25A U48C U76C U78A, the self-cleavage was 0.18.
U25A C62U U78C gave a self-cleavage of 0.07.
In the case of U25C U26A C29G U54C U58C, the self-cleavage is reported as 0.07.
With U25C C32A U49A the self-cleavage was 0.34.
Variant U25C A56U U60A U66G has a self-cleavage of 0.11.
In the case of U25A C39A G46C U48A U58A G73U, the self-cleavage is reported as 0.35.
Variant U25C U74A A77G has a self-cleavage of 0.28.
For U25C U26C A64G, the self-cleavage was 0.41.
With U25C A28G G61A U67C the self-cleavage was 0.08.
In the case of U25A G42U U43C A56G U58C, the self-cleavage is reported as 0.1.
With U25C G73U U80C the self-cleavage was 0.37.
Work on U25C U43A U51C yielded a self-cleavage of 0.51.
Variant U25C A35G U54A A64U has a self-cleavage of 0.08.
Variant U25C U26C A28G U41A U48C has a self-cleavage of 0.27.
Work on U25C U78C U80C yielded a self-cleavage of 0.1.
Work on U25C U31G A45U U69C yielded a self-cleavage of 0.22.
With U25C U26C A57G U76A the self-cleavage was 0.05.
Variant U25C G30A G61C U72G has a self-cleavage of 0.16.
In the case of G24U U25C A35U U43C A77G, the self-cleavage is reported as 0.2.
With U25C A35G G36A A45U U58C the self-cleavage was 0.14.
U25C U51A A57G gave a self-cleavage of 0.16.
With U25A U60C U67C U69A the self-cleavage was 0.07.
U25A G36A U49C U51C A56G showed a self-cleavage of 0.16.
Variant U25A U31C U41C U58A A64G has a self-cleavage of 0.06.
With U25A U54C U72C A77U the self-cleavage was 0.17.
U25C C38G U48C U66C gave a self-cleavage of 0.13.
With U25C C40U G52C U54C the self-cleavage was 0.13.
Work on U25C U26C C37G A47G yielded a self-cleavage of 0.26.
In the case of G24U U66C C71A, the self-cleavage is reported as 0.09.
For U25C U41C A77G, the self-cleavage was 0.27.
U25C U51A U74G showed a self-cleavage of 0.11.
Work on U25C U60A G70C U78C yielded a self-cleavage of 0.14.
U25C U43C U66C U74A A75U U76C gave a self-cleavage of 0.08.
In the case of U25C A56G A64G U76A, the self-cleavage is reported as 0.37.
With U25C U41A A45U A64G the self-cleavage was 0.16.
For U25C A57G U78C, the self-cleavage was 0.29.
Work on U25C A57G U78A yielded a self-cleavage of 0.19.
U25C A56U A77U gave a self-cleavage of 0.12.
For U25C C34U U72C, the self-cleavage was 0.13.
For U25C A28G G33A U72C, the self-cleavage was 0.24.
With U25A C27U A35C U60A C62U the self-cleavage was 0.07.
Variant U25C A47G A56G C62U has a self-cleavage of 0.13.
Variant U25C U31A U78C has a self-cleavage of 0.07.
With U25A C29A C79A the self-cleavage was 0.21.
In the case of U25A A28C U69A, the self-cleavage is reported as 0.33.
With U25C U41C U43A U76C the self-cleavage was 0.26.
In the case of U25C C29U C68U, the self-cleavage is reported as 0.19.
With U25A U49C A64G the self-cleavage was 0.13.
Work on U25A G33A C39A U54C A64G yielded a self-cleavage of 0.11.
U25A U31A C40U U48C U72A U76C gave a self-cleavage of 0.09.
Work on U25A U41C U80C yielded a self-cleavage of 0.33.
In the case of U25C A28C C37U U51G U80A, the self-cleavage is reported as 0.04.
With U25C C32U U54A U76C the self-cleavage was 0.15.
In the case of U25C A45G U49A A64G, the self-cleavage is reported as 0.06.
In the case of U25C A35U C39U G52A U72C, the self-cleavage is reported as 0.08.
For G24C U31C U41A A47U U74C, the self-cleavage was 0.06.
U25C C34U A45U U51C gave a self-cleavage of 0.06.
Variant U25C A28U G30A C39U A77G has a self-cleavage of 0.13.
Work on U25C U58C U74C C81G yielded a self-cleavage of 0.32.
Variant U25A C32A U43A U78G has a self-cleavage of 0.22.
Work on U25A U41A U43A U48A yielded a self-cleavage of 0.15.
U25C U43C U48A U58C gave a self-cleavage of 0.14.
For U25C U43A U66G, the self-cleavage was 0.47.
With U25C C38A U49C U54C C71A the self-cleavage was 0.11.
Work on U25C U43A U54A U60C U74C yielded a self-cleavage of 0.19.
For U25C A28C U60A, the self-cleavage was 0.49.
With U25C A35G A57G the self-cleavage was 0.22.
With G24U U67A A75G the self-cleavage was 0.14.
For G24U A35G U72C, the self-cleavage was 0.84.
Work on U25C U54C U78C yielded a self-cleavage of 0.2.
In the case of U25C C37G A45G U67C, the self-cleavage is reported as 0.16.
U25C U48C U72A U78C gave a self-cleavage of 0.3.
With U25A U54C A57G A75G the self-cleavage was 0.1.
For U25C A45G G55A U58C U72A U76C, the self-cleavage was 0.05.
U25C U58C U66C gave a self-cleavage of 0.18.
Work on U25C A28G U49C C71U yielded a self-cleavage of 0.11.
With U25C A56G C62G the self-cleavage was 0.17.
Variant U25C U26C U31A U54G U66C A75C has a self-cleavage of 0.05.
Variant U25C U31A U51A G52A U76A A77G has a self-cleavage of 0.23.
U25C U26C U31C A64G U80A showed a self-cleavage of 0.05.
For U25C A28U U31C U67C, the self-cleavage was 0.09.
With U25C U78G U80C the self-cleavage was 0.06.
U25C C38A U41A gave a self-cleavage of 0.32.
U25C A56U U69C U76C gave a self-cleavage of 0.03.
With U25C U26A A28G the self-cleavage was 0.37.
U25C U41C A45U showed a self-cleavage of 0.16.
U25C A28U C40U A45G A65C gave a self-cleavage of 0.15.
Work on U25C U60C U74A A75G yielded a self-cleavage of 0.04.
U25A A28U U60C gave a self-cleavage of 0.13.
With U25C U41G U69A U80C the self-cleavage was 0.29.
Variant U25C A28G G55A U69C U78A U80C has a self-cleavage of 0.07.
U25A U43C U76C gave a self-cleavage of 0.27.
U25C A57G A64G showed a self-cleavage of 0.08.
In the case of U25C C27U A35U U41C, the self-cleavage is reported as 0.11.
With U25C U26A U41A C44U U58A U72A the self-cleavage was 0.06.
U25A U43C U48C U67C U80A showed a self-cleavage of 0.09.
For U25A U43C A45C U60A, the self-cleavage was 0.19.
In the case of U25C U48C U72C, the self-cleavage is reported as 0.35.
With G24U C38U U54C the self-cleavage was 0.12.
With U25C G36A U54C A56G C62U the self-cleavage was 0.13.
U25C C68U U80C gave a self-cleavage of 0.45.
For U25A U43A A57G U78C, the self-cleavage was 0.09.
With U25C A35U A47G A77G the self-cleavage was 0.1.
U25C A65G A75G U80C gave a self-cleavage of 0.1.
With U25A U51C U80C the self-cleavage was 0.34.
With U25A A57G A64G the self-cleavage was 0.62.
In the case of U25C U48C A56G A57G A75U, the self-cleavage is reported as 0.08.
U25C U31C C32U U51C A56G gave a self-cleavage of 0.07.
U25C A35G U41A A47U U69A U78C showed a self-cleavage of 0.07.
For U25C U26C A45U A47G U60C U74C, the self-cleavage was 0.03.
Variant U25C A35G U69C has a self-cleavage of 0.15.
Work on U25C C38A A47G A56G U69C yielded a self-cleavage of 0.05.
U25C C40A U60A showed a self-cleavage of 0.11.
U25A U26C U51A showed a self-cleavage of 0.47.
U25C A47G A77U showed a self-cleavage of 0.31.
In the case of U25C A28G U74C, the self-cleavage is reported as 0.11.
U25C U51C U54A A56U U74C gave a self-cleavage of 0.08.
For G24U A35G C37U U48C U60C U69C, the self-cleavage was 0.12.
For U25C U58C A64U U69C, the self-cleavage was 0.19.
With U25C U31G A65G the self-cleavage was 0.14.
Variant G24C U31A G73U U80A has a self-cleavage of 0.07.
Variant U25C U49C U60A A75G has a self-cleavage of 0.1.
With U25C U43A U66C U72A the self-cleavage was 0.09.
In the case of U25C A56G A64U, the self-cleavage is reported as 0.27.
In the case of U25A U41C U60C U69C U74C, the self-cleavage is reported as 0.08.
For U25C A45U G53C, the self-cleavage was 0.17.
For G24U A28G U58A U72A U78A, the self-cleavage was 0.08.
For U25C A56U U58G U60A U66G, the self-cleavage was 0.12.
Variant U25C U41A A56U has a self-cleavage of 0.18.
U25C U51A U72C gave a self-cleavage of 0.3.
Work on U25A C32U A45G U49A U60A U72C yielded a self-cleavage of 0.14.
For U25C A35G U54A U72A, the self-cleavage was 0.09.
In the case of U25C U49C U67A, the self-cleavage is reported as 0.21.
With U25C A64G U69C the self-cleavage was 0.11.
In the case of U25C U31G U43C A56G A65U A75G, the self-cleavage is reported as 0.05.
With U25C U26C U41C U78A the self-cleavage was 0.06.
In the case of U25C A45G U54C U60G U67A, the self-cleavage is reported as 0.11.
Variant U25C U31C U72G has a self-cleavage of 0.17.
With U25C U43C U54C the self-cleavage was 0.13.
